T1: RBFOX1 RRM (Homo sapiens, UniProt Q9NWB1 109-208)
T1 sequence: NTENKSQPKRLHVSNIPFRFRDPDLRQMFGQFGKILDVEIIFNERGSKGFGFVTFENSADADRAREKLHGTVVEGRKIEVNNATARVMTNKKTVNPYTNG

B1: GCCUGGC (DNA:RNA)
RNA: GGGAGACCGGAAUUCAGAUUGUCCGCCUGGCUUAAAUCCCGUCGUAGCCACCA
DNA 1: CAATCTGAATTCCGGTCTCCC
DNA 2: TGGTGGCTACGACGGGATT
B2: CAUAUGU (DNA:RNA)
RNA: B1 RNA with G25C, C26A, C27U, U28A, G29U, C31U
DNA 1: CAATCTGAATTCCGGTCTCCC
DNA 2: TGGTGGCTACGACGGGATT
B3: CAUAGAC (DNA:RNA)
RNA: B1 RNA with G25C, C26A, C27U, U28A, G30A
DNA 1: CAATCTGAATTCCGGTCTCCC
DNA 2: TGGTGGCTACGACGGGATT
B4: AUAUAAG (DNA:RNA)
RNA: B1 RNA with G25A, C26U, C27A, G29A, G30A, C31G
DNA 1: CAATCTGAATTCCGGTCTCCC
DNA 2: TGGTGGCTACGACGGGATT
B5: GGUAGAA (DNA:RNA)
RNA: B1 RNA with C26G, C27U, U28A, G30A, C31A
DNA 1: CAATCTGAATTCCGGTCTCCC
DNA 2: TGGTGGCTACGACGGGATT
B6: AAUGCUA (DNA:RNA)
RNA: GGGAGACCGGAAUUCAGAUUGUCCAAUGCUAUUAAAUCCCGUCGUAGCCACCA
DNA 1: CAATCTGAATTCCGGTCTCCC
DNA 2: TGGTGGCTACGACGGGATT
B7: UAUACCA (DNA:RNA)
RNA: B6 RNA with A25U, G28A, U30C
DNA 1: CAATCTGAATTCCGGTCTCCC
DNA 2: TGGTGGCTACGACGGGATT
B8: AGGUUAC (DNA:RNA)
RNA: B1 RNA with G25A, C26G, C27G, G29U, G30A
DNA 1: CAATCTGAATTCCGGTCTCCC
DNA 2: TGGTGGCTACGACGGGATT
B9: GUGGCGA (DNA:RNA)
RNA: B6 RNA with A25G, A26U, U27G, U30G
DNA 1: CAATCTGAATTCCGGTCTCCC
DNA 2: TGGTGGCTACGACGGGATT
B10: AAAUCAU (DNA:RNA)
RNA: B6 RNA with U27A, G28U, U30A, A31U
DNA 1: CAATCTGAATTCCGGTCTCCC
DNA 2: TGGTGGCTACGACGGGATT
B11: AGGCUUG (DNA:RNA)
RNA: B6 RNA with A26G, U27G, G28C, C29U, A31G
DNA 1: CAATCTGAATTCCGGTCTCCC
DNA 2: TGGTGGCTACGACGGGATT
B12: UUCGGCG (DNA:RNA)
RNA: B1 RNA with G25U, C26U, U28G, G30C, C31G
DNA 1: CAATCTGAATTCCGGTCTCCC
DNA 2: TGGTGGCTACGACGGGATT
B13: AUUUCAU (DNA:RNA)
RNA: B6 RNA with A26U, G28U, U30A, A31U
DNA 1: CAATCTGAATTCCGGTCTCCC
DNA 2: TGGTGGCTACGACGGGATT
B14: AGGUGCA (DNA:RNA)
RNA: B6 RNA with A26G, U27G, G28U, C29G, U30C
DNA 1: CAATCTGAATTCCGGTCTCCC
DNA 2: TGGTGGCTACGACGGGATT
B15: AGCGUGA (DNA:RNA)
RNA: B6 RNA with A26G, U27C, C29U, U30G
DNA 1: CAATCTGAATTCCGGTCTCCC
DNA 2: TGGTGGCTACGACGGGATT
B16: CUCGUAC (DNA:RNA)
RNA: B1 RNA with G25C, C26U, U28G, G29U, G30A
DNA 1: CAATCTGAATTCCGGTCTCCC
DNA 2: TGGTGGCTACGACGGGATT
B17: GUGAGCG (DNA:RNA)
RNA: B1 RNA with C26U, C27G, U28A, G30C, C31G
DNA 1: CAATCTGAATTCCGGTCTCCC
DNA 2: TGGTGGCTACGACGGGATT
B18: UACGACC (DNA:RNA)
RNA: B6 RNA with A25U, U27C, C29A, U30C, A31C
DNA 1: CAATCTGAATTCCGGTCTCCC
DNA 2: TGGTGGCTACGACGGGATT
B19: GAGUUUC (DNA:RNA)
RNA: B1 RNA with C26A, C27G, G29U, G30U
DNA 1: CAATCTGAATTCCGGTCTCCC
DNA 2: TGGTGGCTACGACGGGATT
B20: ACAGCGC (DNA:RNA)
RNA: B6 RNA with A26C, U27A, U30G, A31C
DNA 1: CAATCTGAATTCCGGTCTCCC
DNA 2: TGGTGGCTACGACGGGATT
B21: UGUGAAC (DNA:RNA)
RNA: B6 RNA with A25U, A26G, C29A, U30A, A31C
DNA 1: CAATCTGAATTCCGGTCTCCC
DNA 2: TGGTGGCTACGACGGGATT
B22: UUAAAAA (DNA:RNA)
RNA: B6 RNA with A25U, A26U, U27A, G28A, C29A, U30A
DNA 1: CAATCTGAATTCCGGTCTCCC
DNA 2: TGGTGGCTACGACGGGATT
B23: AGCAGCC (DNA:RNA)
RNA: B1 RNA with G25A, C26G, U28A, G30C
DNA 1: CAATCTGAATTCCGGTCTCCC
DNA 2: TGGTGGCTACGACGGGATT
B24: ACCCUUA (DNA:RNA)
RNA: B6 RNA with A26C, U27C, G28C, C29U
DNA 1: CAATCTGAATTCCGGTCTCCC
DNA 2: TGGTGGCTACGACGGGATT
B25: CGUUGUU (DNA:RNA)
RNA: B6 RNA with A25C, A26G, G28U, C29G, A31U
DNA 1: CAATCTGAATTCCGGTCTCCC
DNA 2: TGGTGGCTACGACGGGATT
B26: AUACCGA (DNA:RNA)
RNA: B6 RNA with A26U, U27A, G28C, U30G
DNA 1: CAATCTGAATTCCGGTCTCCC
DNA 2: TGGTGGCTACGACGGGATT
B27: AAAUCGU (DNA:RNA)
RNA: B6 RNA with U27A, G28U, U30G, A31U
DNA 1: CAATCTGAATTCCGGTCTCCC
DNA 2: TGGTGGCTACGACGGGATT
B28: ACUCUGC (DNA:RNA)
RNA: B1 RNA with G25A, C27U, U28C, G29U
DNA 1: CAATCTGAATTCCGGTCTCCC
DNA 2: TGGTGGCTACGACGGGATT
B29: CACAAUU (DNA:RNA)
RNA: B6 RNA with A25C, U27C, G28A, C29A, A31U
DNA 1: CAATCTGAATTCCGGTCTCCC
DNA 2: TGGTGGCTACGACGGGATT
B30: UAUCUUU (DNA:RNA)
RNA: B6 RNA with A25U, G28C, C29U, A31U
DNA 1: CAATCTGAATTCCGGTCTCCC
DNA 2: TGGTGGCTACGACGGGATT
B31: CACAUUA (DNA:RNA)
RNA: B6 RNA with A25C, U27C, G28A, C29U
DNA 1: CAATCTGAATTCCGGTCTCCC
DNA 2: TGGTGGCTACGACGGGATT

Where a chain is given by its changes, count along the chain named. Some of the results follow.

This assay has as its target T1, RBFOX1 RRM. In words: EMSA; HiTS-Eq, 1 nM pool, 10 min; buffer printed only for the single-RNA assays: 10 mM Tris pH 7.5, 150 mM NaCl, 3.4 mM EDTA, 0.001% NP-40, 30 C. To be noted: tags: His6 N-terminal (pET28a); label: 5' 32P. In a few lines:
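Purified wild-type or mutant RbFox RRM at increasing concentrations was equilibrated with 1 nM of 5′-radiolabelled RNA carrying 7 randomized nucleotides for 10 min in 50 µL. Unbound RNA was separated by 8% native PAGE and sequenced. Relative association constants came from read-count changes of each RNA species compared with the control reaction, normalised to the cognate motif.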
In the case of B1, the binding signal was 0.0234 KA relative to UGCAUGU.
Consider B2, for which the binding signal was 0.00576 KA relative to UGCAUGU.
Regarding B3, the binding signal is 0.00466 KA relative to UGCAUGU.
The same measure for B4: 0.00356 KA relative to UGCAUGU; for B5: 0.0124 KA relative to UGCAUGU.
For the molecule B6, the binding signal is 0.00665 KA relative to UGCAUGU.
For B7, the binding signal was 0.00634 KA relative to UGCAUGU.
Consider B8, for which the binding signal is 0.00822 KA relative to UGCAUGU.
For the molecule B9, the binding signal was 0.0208 KA relative to UGCAUGU.
Regarding B10, the binding signal was 0.000849 KA relative to UGCAUGU.
With B11, the binding signal is 0.0346 KA relative to UGCAUGU.
Take B12: the binding signal was 0.0185 KA relative to UGCAUGU.
With B13, the binding signal is 0.00614 KA relative to UGCAUGU.
As to B14, the binding signal was 0.0203 KA relative to UGCAUGU.
Consider B15, for which the binding signal was 0.0138 KA relative to UGCAUGU.
As for B16, the binding signal was 0.00737 KA relative to UGCAUGU.
The result for B17 reads 0.0226 KA relative to UGCAUGU.
For the molecule B18, the binding signal is 0.00362 KA relative to UGCAUGU.
Regarding B19, the binding signal is 0.0233 KA relative to UGCAUGU.
The same measure for B20: 0.00527 KA relative to UGCAUGU; for B21: 0.0154 KA relative to UGCAUGU; for B22: 0.00182 KA relative to UGCAUGU.
The result for B23 reads 0.00568 KA relative to UGCAUGU.
The result for B24 reads 0.000897 KA relative to UGCAUGU.
As for B25, the binding signal is 0.0141 KA relative to UGCAUGU.
With B26, the binding signal is 0.00279 KA relative to UGCAUGU.
The same measure for B27: 0.00255 KA relative to UGCAUGU.
Regarding B28, the binding signal was 0.00588 KA relative to UGCAUGU.
For the molecule B29, the binding signal was 0.000253 KA relative to UGCAUGU.
The result for B30 reads 0.00872 KA relative to UGCAUGU; that for B31, 0.00115 KA relative to UGCAUGU.

These data come from paper PMC9911399, “Two distinct binding modes provide the RNA-binding protein RbFox with extraordinary sequence specificity”.
